Experimental data published in the supplement of paper PMC10126150.
Values marked as one replicate rest on one cluster of the flow cell; about a third of the high ones do not repeat.

Tested on: ATP
Assay: switch fluorescence ratio, 500 uM ATP over buffer (Cy3 cluster intensity, sum of 5 cycles each) (fold (ratio)); higher = stronger signal-on switching upon ATP binding; sequences stand for … in TCGTCGGCAGCGTCAGATGTGTATAAGAGACAGTTTTTTTTTTTTTTTTTTTTTTTTT…TC
Conditions: aptamer strand: ATP DNA aptamer (quencher-CACCTGGGGGAGTATTGCGGAGGAAGG + anchor), 100 nM annealed; ATP concentration: 500 uM; one replicate
How it was run: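 Imaging in selection buffer was followed by imaging after 15 min with 500 uM ATP at 22 °C, for Cy3-labelled switching-strand clusters annealed to 100 nM quencher-labelled ATP aptamer on a modified Illumina MiSeq flow-cell. Five of these buffer/ATP cycles ran, separated by NaOH stripping and re-annealing. The fluorescence ratio per cluster is summed target-cycle over summed buffer-cycle Cy3 intensity, averaged per switch-domain sequence; clusters outside 100-1000 RFU were removed.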
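Also: ATP exposure 15 min at 22 °C before imaging.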

Row | Sequence | switch fluorescence ratio
1 | CACGCCTGC | 1.1
2 | CACGGACATT | 1.41
3 | CAGGTTATAC | 1.28
4 | GTTTCCGGAT | 1.1
5 | GCTTTCCCGT | 1.08
6 | CGTGTGTCGG | 0.945
7 | CGGGGAGCGA | 1.01
8 | GTCATAGCAC | 1.02
9 | AGCATCTAA | 0.996
10 | GCCCGCCCAT | 1.13
11 | ACGTTTGTCT | 1.02
12 | CGCGCGAGTT | 0.986
13 | GGATGTTGTA | 0.951
14 | CATGCCGGGG | 1.05
15 | TGGTGGATG | 1.04
16 | CGTATGAGTC | 0.983
17 | GCGCAGTAAG | 1.03
18 | AACACTTAAA | 1.06
19 | TGAGGGTCCA | 1.03
20 | CAGGATGGCA | 0.935
21 | GGGAACGGTT | 0.923
22 | ATGGTTATG | 0.934
23 | GCTATCTGAG | 1.04
24 | TGCCGATAGT | 1.03
25 | GTGCAAGCTT | 1.02
26 | TCCGGATGTC | 1.12

Row | Sequence | switch fluorescence ratio
27 | AATCAGGGGC | 1.05
28 | CTACTATCG | 0.992
29 | CCCAACAGTA | 1.06
30 | TGGAATTTGT | 1
31 | AGGCCATTTA | 1
32 | CAGAGATAAT | 1
33 | ACCTTCCGAG | 3.7
34 | GGGCGACCGG | 0.967
35 | CATCGCGTGC | 1.24
36 | GGGTTGTGCG | 1.06
37 | GCACTCTTCT | 1.06
38 | CTAATCGGAA | 1.05
39 | AGGTTGGATG | 1
40 | CGAGTTAACG | 0.981
41 | AAAGGTAAGA | 1
42 | GCTTGTCATG | 0.984
43 | AGTTGGAGGG | 0.991
44 | ACGACGGGTC | 1.16
45 | GGCAGAAGGT | 0.971
46 | AGTCACTGGA | 1.19
47 | TTTAGGATGG | 0.997
48 | GTAGGAATAG | 2.46
49 | GACTTTCGTC | 0.978
50 | GACCCTATTT | 1.04
51 | TATCATTATA | 1
52 | AATTATACAG | 1.03

Row | Sequence | switch fluorescence ratio
53 | AGGTGCTAAA | 0.969
54 | TGAGATTGCA | 1.05
55 | ATAGGTGTCT | 1.04
56 | GCTGAATAG | 1.03
57 | AACAGCGCTT | 0.959
58 | CCTTAAGTTT | 1.06
59 | TTAGACGCAG | 1.17
60 | GACATCTTCA | 1.05
61 | CCAGCTTTC | 1.33
62 | AGCGCAGATA | 1.01
63 | TTCGGATTTT | 0.994
64 | TCCTTATCTA | 0.999
65 | TTTTAGGATA | 1
66 | GGGAGTAGCT | 1.01
67 | CGGCCTATCT | 1.01
68 | TCGGCATGCG | 0.953
69 | AGTGCGAGT | 0.993
70 | TTAGTTCCC | 1.01
71 | AAGTGGGTG | 0.995
72 | GGAGCCAAAG | 1.03
73 | CAAATTGGTC | 1.05
74 | GAGCCCGAAT | 0.998
75 | TTGTGAGGTA | 0.986
76 | CGGCACAGAA | 1
77 | AACCTCGGGG | 0.966
78 | ACCGAACAGG | 0.999

Row | Sequence | switch fluorescence ratio
79 | TATTATTTCT | 1
80 | GGGGAAACCC | 1.05
81 | CCCGTTATTT | 1.09
82 | CAATCTTATG | 1.04
83 | GGGTGATGCC | 1.05
84 | ATCTGACAGC | 1.04
85 | AACCATTTGT | 1
86 | ACTCTCTAGG | 1.57
87 | AACCATTTAT | 0.97
88 | GACATATGCG | 1.05
89 | ATTGATTCCG | 1.05
90 | TGTGGCCCGT | 0.995
91 | TACTCAGAGA | 1.09
92 | GGGAAAAAAA | 0.95
93 | AGAAGAAGC | 0.984
94 | TCTTCAAAGG | 1.04
95 | CGATAGGAGG | 0.981
96 | CCATTCCTGG | 1.03
97 | GGCGGGGGG | 1.04
98 | ATTCCTTACC | 1.23
99 | ACCCGGATGT | 1.04
100 | TCACACTCAG | 1.07
101 | AGTTCGCGTT | 0.998
102 | ATTCTTTTCG | 0.953
103 | TGATGAACGA | 1.04
104 | AAGATGGAGA | 1.04

Row | Sequence | switch fluorescence ratio
105 | CTATTTTTTG | 0.976
106 | GGTACGTCGC | 1.01
107 | TACAAATAGT | 1.2
108 | TCACCGTAGT | 1.13
109 | TAGTATACAC | 1.01
110 | AAGAGTAAAT | 1.02
111 | ATCGTAGGGA | 1.02
112 | GCAGATGCT | 0.984
113 | TAGTCCGGTC | 1.01
114 | AGTGGTGGCA | 1.01
115 | GAAGCTATA | 2.27
116 | AGAGTGGCCA | 1.05
117 | CCAGTGTGCT | 1.33
118 | CTAGGGGTCA | 0.995
119 | CCGAACCGGG | 0.992
120 | ATGAGATTTC | 0.999
121 | ATCGGGGACT | 1.04
122 | GTTGGATGTT | 0.988
123 | ACTGCATTGG | 1.12
124 | TGATCCATG | 0.991
125 | TGGATTAGGA | 0.936
126 | TAGATATACG | 1.02
127 | ACTTTTTGTA | 0.999
128 | TGCTCCATTT | 0.985
129 | AGATATCCCT | 1.05
130 | TTTCGGTCTC | 1

Row | Sequence | switch fluorescence ratio
131 | CTAGGGAATA | 1.02
132 | AGTCGGTGAG | 0.984
133 | GCATGCTGAT | 1
134 | CTCCATCTGA | 1
135 | GCAGTGTGGT | 1.07
136 | CTGTCAACGT | 0.981
137 | CCGAGGTGCT | 2.41
138 | ACTCGATTCG | 1.02
139 | CGGGTGTGCC | 0.988
140 | TTATGCATTG | 0.989
141 | TTTAGCCGCG | 0.986
142 | GTATAGTGC | 0.95
143 | TATTCTTTTG | 0.978
144 | CACTTTACCT | 1.33
145 | CGTTGTAATA | 1.08
146 | CGGCAATTGT | 1.24
147 | CTAGGCTGGT | 0.972
148 | ACCGAGACG | 1.01
149 | CTTGGCCATA | 0.978
150 | GTCCCCAAGC | 1.17
151 | GGTCTTCCTA | 0.971
152 | AATAGTAGAG | 0.98
153 | ACAGGGAGGA | 1.01
